Where a name gives a salt, the structure may show the parent alone. ± gives the standard deviation of the averaged measurements. Some of the results follow.
test system: hAMSC donor 1; assay: transgenic luciferase activity (RLU/mg protein) fold change vs vehicle control (ratio); hAMSC are human adipose-derived mesenchymal stem cells given an EGFP-luciferase plasmid by lipofection; higher = more transgene expression; conditions: priming compound concentration 100 µM
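Further: compounds in DMSO added 30 min before Lipofectamine 3000 transfection of pEGFP-Luc in 96-well plates, values are means of triplicate wells over DMSO vehicle wells on the same plate.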

Structure (SMILES) | transgenic luciferase activity
OCc1cccnc1 [3-Pyridinemethanol] | 1.32 ± 0.44
C[C@H]1C[C@@H]2[C@H]([C@@H](O)C[C@@]3(C)[C@H]2CC[C@]3(O)C(=O)CO)[C@@]2(C)C=CC(=O)C=C12 [Methylprednisolone] | 5.93 ± 0.6
COC(=O)[C@H](c1ccccc1Cl)N1CCc2sccc2C1 [Clopidogrel] | 1.35 ± 0.5

test system: hAMSC donor 2; assay: as above; conditions: priming compound concentration 100 µM

Structure (SMILES) | transgenic luciferase activity
CC(C)(C)NCC(O)c1cc(O)cc(O)c1 (configuration not stated) [Terbutaline sulfate] | 0.807 ± 0.13
CC1=C(/C=C/C(C)=C/C=C/C(C)=C\C(=O)O)C(C)(C)CCC1 [Isotretinoin] | 0.192 ± 0.035
CC[C@H](C)C(=O)O[C@H]1C[C@@H](C)C=C2C=C[C@H](C)[C@H](CC[C@@H]3C[C@@H](O)CC(=O)O3)[C@H]21 [Lovastatin] | 0.58 ± 0.098
CN1CCC(=C2c3ccccc3C=Cc3ccccc32)CC1 [Cyproheptadine hydrochloride] | 0.161 ± 0.012
C=CCc1ccc(O)c(-c2ccc(O)c(CC=C)c2)c1 [Honokiol] | 0.00054 ± 6.2e-05
CC(C)Oc1ccc2c(=O)c(-c3ccccc3)coc2c1 [Ipriflavone] | 0.963 ± 0.084
CC[C@@]1(O)C(=O)OCc2c1cc1n(c2=O)Cc2cc3c(CN(C)C)c(O)ccc3nc2-1 [Topotecan hydrochloride] | 0.254 ± 0.13
CN(C)CCCSc1ccccc1NC(=O)/C=C/c1ccccc1 [Cinanserin] | 0.39 ± 0.069
CC(=O)OCC(CCn1cnc2cnc(N)nc21)COC(C)=O [Famciclovir] | 0.381 ± 0.064
C[C@](N)(Cc1ccc(O)cc1)C(=O)O [alpha-Methyl-L-tyrosine] | 0.669 ± 0.097
C=CC1=C(C(=O)O)N2C(=O)[C@@H](NC(=O)/C(=N\O)c3csc(N)n3)[C@H]2SC1 [Cefdinir] | 0.357 ± 0.065
COc1ccc(CC(C)NCC(O)c2ccc(O)c(NC=O)c2)cc1 (configuration not stated) [Formoterol fumarate dihydrate] | 0.466 ± 0.049
Cc1nc(=O)c2cc(CN(C)c3ccc(C(=O)N[C@@H](CCC(=O)O)C(=O)O)s3)ccc2[nH]1 [Raltitrexed] | 1.06 ± 0.13
CC(C)[N+](C)(CCOC(=O)C1c2ccccc2Oc2ccccc21)C(C)C [Propantheline bromide] | 0.216 ± 0.15
COCCOC(=O)C1=C(C)NC(C)=C(C(=O)OC(C)C)C1c1cccc([N+](=O)[O-])c1 (configuration not stated) [Nimodipine] | 0.815 ± 0.12
CN(C)CCOC(c1ccc(Cl)cc1)c1ccccn1 (configuration not stated) [Carbinoxamine maleate] | 0.512 ± 0.18
CC(C)c1ccc2c(c1)c(SC(C)(C)C)c(CC(C)(C)C(=O)O)n2Cc1ccc(Cl)cc1 | 0.317 ± 0.016
CCN1CCN(c2cc3c(cc2F)c(=O)c(C(=O)O)cn3C2CC2)CC1 [Enrofloxacin] | 0.885 ± 0.25
CN[C@H]1CC[C@@H](c2ccc(Cl)c(Cl)c2)c2ccccc21 [Sertraline hydrochloride] | 0.00273 ± 0.0043
CC(=O)S[C@@H]1CC2=CC(=O)CC[C@]2(C)[C@H]2CC[C@@]3(C)[C@@H](CC[C@@]34CCC(=O)O4)[C@H]12 [Spironolactone] | 0.238 ± 0.036

Structure (SMILES) | transgenic luciferase activity
O=C(CCCN1CCC(O)(c2ccc(Cl)cc2)CC1)c1ccc(F)cc1 [Haloperidol hydrochloride] | 0.711 ± 0.17
CCCCN1CCCC1CNC(=O)c1cc(C#N)c2ccccc2c1OC (configuration not stated) [Nafadotride] | 0.892 ± 0.074
O=C(CCNNC(=O)c1ccncc1)NCc1ccccc1 [Nialamide] | 0.946 ± 0.17
NS(=O)(=O)c1cc(C(=O)O)c(NCc2ccco2)cc1Cl [Furosemide] | 0.693 ± 0.095
CCN(CC)CC(=O)Nc1c(C)cccc1C [Lidocaine] | 0.551 ± 0.1
O=C1CC2(CCCC2)CC(=O)N1CCCCN1CCN(c2ncccn2)CC1 [Buspirone hydrochloride] | 0.913 ± 0.17
Cc1cccc(CN2CCN(C(c3ccccc3)c3ccc(Cl)cc3)CC2)c1 (configuration not stated) [Meclizine hydrochloride] | 0.0589 ± 0.021
C[C@@](Cc1ccc(O)c(O)c1)(NN)C(=O)O [Carbidopa] | 1.06 ± 0.27
C#C[C@]1(O)CC[C@H]2[C@@H]3CCc4cc(OC)ccc4[C@H]3CC[C@@]21C [Mestranol] | 2.26 ± 0.88
CC1(C)S[C@@H]2[C@H](NC(=O)Cc3ccccc3)C(=O)N2[C@H]1C(=O)O [Penicillin G potassium] | 0.54 ± 0.32
O=C1[C@H](CC[C@H](O)c2ccc(F)cc2)[C@@H](c2ccc(O)cc2)N1c1ccc(F)cc1 [Ezetimibe] | 1.28 ± 0.17
Nc1nc2c(ncn2COC(CO)CO)c(=O)[nH]1 [Ganciclovir] | 0.668 ± 0.19
Nc1c2c(nc3ccccc13)CCCC2 [Tacrine hydrochloride] | 0.555 ± 0.15
CCN1CCC[C@H]1CNC(=O)c1cc(S(N)(=O)=O)ccc1OC [Levosulpiride] | 2.1 ± 0.23
Cn1ccnc1S [Methimazole] | 1.54 ± 0.65
COc1cc([C@@H]2c3cc4c(cc3[C@@H](O[C@@H]3O[C@@H]5CO[C@@H](C)O[C@H]5[C@H](O)[C@H]3O)[C@H]3COC(=O)[C@H]23)OCO4)cc(OC)c1O [Etoposide] | 0.693 ± 0.24
OCc1cccnc1 [3-Pyridinemethanol] | 1.08 ± 0.33
C[C@H]1C[C@@H]2[C@H]([C@@H](O)C[C@@]3(C)[C@H]2CC[C@]3(O)C(=O)CO)[C@@]2(C)C=CC(=O)C=C12 [Methylprednisolone] | 3.08 ± 0.8
COC(=O)[C@H](c1ccccc1Cl)N1CCc2sccc2C1 [Clopidogrel] | 0.63 ± 0.078
